Experimental data published in the supplement of paper PMC3334620.
The full ranking holds about 33,000 sequences; the median of “E-score (-0.5 to 0.5)” is about -0.036, and the highest 2% start at about 0.37. The list shows a part of the results.

target: T1, Yer064c (UniProt P40041); assay: PBM E-score (8-mer binding enrichment) (E-score (-0.5 to 0.5)); higher = stronger / more preferred TF binding; most listed sequences are background and not binding sites; settings: protein concentration: 200 nM; construct: GST-full length
T1 sequence: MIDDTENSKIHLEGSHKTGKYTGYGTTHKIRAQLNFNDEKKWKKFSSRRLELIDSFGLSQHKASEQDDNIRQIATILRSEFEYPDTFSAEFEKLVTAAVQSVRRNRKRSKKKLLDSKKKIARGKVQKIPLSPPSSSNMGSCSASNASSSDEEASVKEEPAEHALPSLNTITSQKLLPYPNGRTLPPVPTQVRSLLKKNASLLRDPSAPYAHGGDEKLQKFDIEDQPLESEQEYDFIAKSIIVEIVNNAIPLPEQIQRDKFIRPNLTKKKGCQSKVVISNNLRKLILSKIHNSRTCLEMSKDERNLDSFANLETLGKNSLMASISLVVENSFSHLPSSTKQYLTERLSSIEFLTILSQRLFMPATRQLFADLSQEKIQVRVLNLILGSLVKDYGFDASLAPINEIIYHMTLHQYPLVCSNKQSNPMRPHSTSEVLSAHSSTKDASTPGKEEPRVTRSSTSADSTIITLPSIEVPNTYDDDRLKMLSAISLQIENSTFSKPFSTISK
Procedure, shortened: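 Detection of bound protein used fluorescent anti-GST, with scans normalised by masliner. The proteins were GST-tagged yeast transcription factors applied at about 100-200 nM to universal all-10-mer Agilent arrays made double-stranded by primer extension. Each ungapped eight-base word, pooled with its reverse complement, was scored with an E-score from the Universal PBM Analysis Suite.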

Row | Sequence | PBM E-score
1 | CCCAGGAG | -0.148
2 | CCAGGGCA | -0.227
3 | AGTACTTA | 0.162
4 | ATAAGGTC | 0.0324
5 | ACGGGATA | -0.161
6 | GCAACTTA | -0.0742
7 | CCCTCGAA | -0.175
8 | CATAGCCG | 0.0677
9 | ACCACTAC | -0.102
10 | GTGCTAAA | 0.0596
11 | TCGGAAAA | 0.0742
12 | CGTGCACA | 0.0424
13 | AGTTCGAC | -0.0305
14 | AATGACCA | 0.0838
15 | ATGCATTC | -0.139
16 | GCTCCGCA | -0.00188
17 | CCATACCG | -0.0496
18 | ATAGGGCA | -0.155
19 | AACAGCAT | -0.0448
20 | GACCGTCA | -0.169
21 | GCATGACC | 0.0217
22 | AGTACCTA | 0.101
23 | TATGAATA | 0.0885
24 | CACTTTCA | -0.00334
25 | AGTTAACA | 0.0587

Row | Sequence | PBM E-score
26 | GTAAACAC | 0.00508
27 | GCCGGGAC | -0.188
28 | GACGCCGA | -0.0356
29 | CCACCAGC | -0.0281
30 | AGGAGCGG | -0.264
31 | AAGGCCAC | -0.21
32 | GGAGGTAC | -0.0956
33 | ATGCCACA | -0.163
34 | CCCCATTC | -0.206
35 | TAATCATA | 0.457
36 | CGAGTTCC | 0.117
37 | GAAACTGC | -0.334
38 | CGAATTAC | -0.164
39 | GCCCGCTA | -0.352
40 | TGATGACA | -0.146
41 | TCCCGCGA | 0.113
42 | CAAAACTC | -0.0536
43 | GGCGAACC | -0.174
44 | CGCCGTAG | -0.0211
45 | GAGATATC | -0.21
46 | ACTTATGC | 0.199
47 | AGAGAGCA | -0.079
48 | CGATACAA | -0.0871
49 | TTAACAAA | 0.199
50 | ACCAATAC | -0.0932

Row | Sequence | PBM E-score
51 | GCGTCGCA | 0.0193
52 | CACAAATA | 0.114
53 | CGGGTCCA | -0.0875
54 | CCGCGCGG | -0.0114
55 | AGGGTGCG | -0.267
56 | ACAATACA | -0.119
57 | CAGGCGCC | -0.142
58 | AAGCGCAC | -0.23
59 | GCCATAAC | -0.0271
60 | CTTGATAC | 0.0819
61 | GGACACCA | -0.262
62 | GAGCACTC | -0.182
63 | ATGTTAAG | -0.112
64 | GGTCTGGA | -0.274
65 | GAAATCCC | -0.319
66 | ACGAGCTA | -0.117
67 | CCTAAAAC | -0.101
68 | CTTCCACA | -0.1
69 | AGGATTAC | -0.0301
70 | ATCGCCAC | -0.132
71 | TACTCATA | 0.343
72 | AACGAAAC | -0.0959
73 | GGCGTCAC | -0.286
74 | GGGCCCTA | -0.217
75 | AAACTTTG | 0.142

Row | Sequence | PBM E-score
76 | AACATCTC | -0.143
77 | GTAACCTA | -0.139
78 | GCTCCAAC | -0.164
79 | ACGATCAG | 0.00978
80 | TGAAAGCA | -0.153
81 | CTGAGCCA | 0.31
82 | CCCAGAAG | -0.0291
83 | AGCCTTGG | -0.103
84 | CAACCAGA | 0.0713
85 | AGAATACT | -0.0191
86 | AACTAGTA | 0.149
87 | AAGTGTCC | -0.174
88 | AACGAGTT | 0.0273
89 | CAACTAAA | 0.12
90 | GCACTCTA | -0.172
91 | ATGTATGA | 0.241
92 | GCCATCAC | -0.0511
93 | CCCATTGA | -0.0752
94 | CGAGGCTA | -0.0432
95 | CAAGTAAC | 0.0215
96 | AGTCAAAC | 0.35
97 | GCAAACAA | 0.0387
98 | GGCGTCCA | -0.271
99 | CAACGTTG | 0.0696
100 | CTCGTTAA | 0.166

Row | Sequence | PBM E-score
101 | AATTCGGA | -0.0904
102 | ACGTTTAA | 0.099
103 | ATCTTTGC | -0.0319
104 | GCTTTACA | -0.0319
105 | ACATAGGG | 0.0467
106 | GATAAACA | 0.0421
107 | CGGATCAG | 0.107
108 | ACGGGTAT | 0.161
109 | CAACATCG | -0.127
110 | GGCAACTA | -0.0239
111 | CAGGGGTA | 0.00181
112 | CGCTAGCG | -0.0839
113 | AACCTTGT | -0.0899
114 | CGGCCCAG | -0.207
115 | CCTCGACG | -0.173
116 | ACCACTAG | -0.162
117 | ACCGTCAT | -0.0945
118 | TCTTCCCA | 0.00323
119 | AAGAATGA | 0.262
120 | AAGATGCT | -0.0377
121 | GCGACAGC | -0.265
122 | CCAATCCA | -0.28
123 | ACTCCAGC | 0.142
124 | CCCGTCCG | -0.18
125 | GACTCCCC | 0.405

Row | Sequence | PBM E-score
126 | AACCCCAC | -0.22
127 | GCGGCGTA | -0.146
128 | AACCCCAT | -0.15
129 | CAAGCACG | -0.0181
130 | ACATGGCA | -0.116
131 | ACATTGTG | -0.0703
132 | AAACACGG | -0.147
133 | ACGCGAAG | 0.0551
134 | AGAGGGGG | -0.38
135 | AGGAGTGA | 0.105
136 | ATTAATTA | 0.203
137 | AAACTACC | -0.139
138 | CGTTTCGA | -0.102
139 | ACGTGGCC | -0.212
140 | CAACCCGA | -0.0716
141 | GTAGGAAA | 0.00646
142 | GCTCCGTA | -0.249
143 | ATATATAC | 0.093
144 | AGCTCCCG | -0.0932
145 | CATTCAAA | -0.0755
146 | CACAGTCG | 0.203
147 | ATGCAACA | -0.065
148 | TATATCCA | -0.172
149 | AACCAGGG | -0.11
150 | GTGTCAAC | 0.0879

Row | Sequence | PBM E-score
151 | AGAATTTG | -0.102
152 | AAAGCTGG | -0.131
153 | GCCTATAA | -0.224
154 | GCGGACAC | -0.12
155 | AACCCAGC | 0.0469
156 | GCCTCAGA | -0.0779
157 | CAACCCCG | -0.126
158 | CGAACTCC | -0.0419
159 | AATTGTCT | -0.0929
160 | CAATTTTA | 0.103
161 | AGGGTTGG | -0.248
162 | TACCGATA | 0.0114
163 | AATGCGCA | -0.119
164 | AGTTACGG | 0.0599
165 | CTTCGCAC | -0.0934
166 | TGGAACAA | 0.0192
167 | GTCTCATA | 0.274
168 | CAGACAGC | -0.107
169 | ACAAGAGC | 0.0292
170 | GTGCGTAA | -0.0832
171 | AATTCCTG | -0.107
172 | ATGTATTG | -0.0298
173 | AACAATAC | 0.0647
174 | CAGGTATC | -0.233
175 | TCACCACA | 0.183

Row | Sequence | PBM E-score
176 | ATTACAAA | 0.205
177 | CATTTTTC | 0.116
178 | AGACCCTA | -0.101
179 | CAAGCCAC | 0.0724
180 | ATTCAGCG | -0.0722
181 | AAGTCTTC | 0.282
182 | AAATACGC | -0.128
183 | ACAATTCG | -0.121
184 | AGATGTTC | -0.196
185 | GACCCACA | 0.114
186 | AAATCCGC | -0.16
187 | CGGCACAA | 0.0246
188 | CCGCCCGA | -0.0938
189 | ATACGAAA | 0.0623
190 | ACCAGGGG | -0.0889
191 | AAATCGAG | 0.104
192 | GGTTTGTA | -0.126
193 | CGGCCTTC | -0.26
194 | CCATGTAC | -0.128
195 | ACTAATAC | 0.166
196 | CGCTGCAC | -0.103
197 | CTGTTAAA | 0.0871
198 | GCCGTAAC | -0.0398
199 | CAGCCGGA | -0.00388
200 | AATACTGC | -0.0826

Row | Sequence | PBM E-score
201 | ACTCCTTA | 0.0691
202 | CATTCCTA | 0.108
203 | GCCCACAA | -0.0851
204 | ACGGCACC | -0.33
205 | TCGAATCA | 0.369
206 | AAGTATAA | 0.123
207 | GTGCCGCA | -0.152
208 | TCATTCCA | 0.222
209 | AGCTCGAA | -0.119
210 | CAATGGCG | -0.256
211 | TCGAGGCA | -0.173
212 | AAAAGCGC | -0.162
213 | GAAATGGC | -0.103
214 | CGAGAGCC | -0.156
215 | ACCTAAGT | 0.189
216 | ATTGTCAA | 0.0689
217 | AACTAACC | 0.0831
218 | GATAAATC | 0.048
219 | ACGGGACT | 0.192
